Reference: patent US8586505B2 (SDS Biotech K. K., priority 2009, dated 2013)

Test system: Aphis gossypii
Experiment: whole plant or invertebrate
Settings: in Cucumis sativus, 48 h, read-out: Determination (mortality rate)
Procedure: A cucumber leaf section having a diameter of 3 cm was placed on a wet sponge in a plastic cup. Thereafter, five female adults of Aphis gossypii were released into the plastic cup, and they were then left at rest overnight. Thereafter, the number of new-born larvae was counted. 0.4 ml each of an agent solution prepared by diluting a 10% wettable powder of each compound shown in Table 1 to a concentration of 250 ppm was sprayed thereto. Two days later, the number of deaths was counted, and the mortality rate was then calculated.

| Structure (SMILES) | mortality at 250 ppm |
| --- | --- |
| CC(C)c1ccccc1C#CCCNc1ncnc2ccccc12 [compound 104] | 60 to 80% |
| COCc1ccsc1C#CCCNc1ncnc2ccccc12 [compound 207] | > 95% |
| N#CCc1ccccc1C#CCCNc1ncnc2ccccc12 [compound 147] | > 95% |
| Cc1cccc2c(NC(C)CC#Cc3ccc(Cl)cc3C(F)(F)F)ncnc12 (centres unmarked) [compound 354] | 80 to 95% |
| C[Si](C)(C)C#CCCNc1ncnc2sccc12 [Compound No. 2, 4-(4-Trimethylsilanyl-3-butynylamino)thieno[2,3-d]pyrimidine] | 60 to 80% |
| Clc1cccc(C#CCCNc2ncnc3sccc23)c1 [compound 15] | 60 to 80% |
| FC(F)(F)c1cc(Cl)ccc1C#CCCNc1ncnc2ccccc12 [compound 178] | 80 to 95% |
| CC[Si](C#CCCNc1ncnc2sccc12)(CC)CC [compound 3] | > 95% |
| CCCCC(CC#Cc1ccccc1)Nc1ncnc2sccc12 (centres unmarked) [compound 269] | 60 to 80% |
| FC(F)(F)Oc1ccccc1C#CCCNc1ncnc2sccc12 [compound 32] | 80 to 95% |
| Fc1ccc(C(F)(F)F)c(C#CCCNc2ncnc3ccccc23)c1 [compound 168] | 60 to 80% |
| Fc1ccccc1C#CCCNc1ncnc2sccc12 [compound 11] | > 95% |
| COc1ccc(C#CCCNc2ncnc3sccc23)cc1 [compound 23] | 80 to 95% |
| CC(CC#Cc1ccccc1Cl)Nc1ncnc2sccc12 (centres unmarked) [compound 231] | > 95% |
| FCc1ccccc1C#CCCNc1ncnc2sccc12 [compound 47] | > 95% |
| COCc1ccccc1C#CCCNc1ncnc2cc(Cl)ccc12 [compound 312] | > 95% |
| CC(CC#Cc1c(Cl)cccc1Cl)Nc1ncnc2sccc12 (centres unmarked) [compound 251] | > 95% |
| CC(CC#Cc1ccc(F)cc1CO)Nc1ncnc2sccc12 (centres unmarked) [compound 244] | > 95% |
| CC(CC#Cc1ccc(S(C)(=O)=O)cc1Cl)Nc1ncnc2sccc12 (centres unmarked) [compound 256] | > 95% |
| COCc1ccccc1C#CCCNc1ncnc(Cl)c1Br [compound 366] | > 95% |
| CCOC(OCC)c1ccc(C#CCCNc2ncnc3ccccc23)cc1 [compound 151] | > 95% |
| CC(C)C(CC#Cc1ccccc1)Nc1ncnc2ccccc12 (centres unmarked) [compound 298] | > 95% |
| Cc1nc(C#CCCNc2ncnc3ccccc23)cs1 [compound 211] | 80 to 95% |

| Structure (SMILES) | mortality at 250 ppm |
| --- | --- |
| OCCc1ccccc1C#CCCNc1ncnc2ccccc12 [compound 158] | > 95% |
| CC(=O)Nc1ccccc1C#CCCNc1ncnc2ccccc12 [compound 160] | 60 to 80% |
| CC(CC#Cc1ccc(Cl)c(C(F)(F)F)c1)Nc1ncnc2sccc12 (centres unmarked) [compound 254] | 80 to 95% |
| CN(C)S(=O)(=O)c1ccc(C#CCCNc2ncnc3ccccc23)cc1 [compound 122] | 80 to 95% |
| COCc1ccccc1C#CCCNc1ncnc2c(C(F)(F)F)cccc12 [compound 323] | > 95% |
| COCc1ccccc1C#CCCNc1ncnc2cc(C(F)(F)F)ccc12 [compound 324] | 60 to 80% |
| CC(CC#Cc1ccccc1S(C)(=O)=O)Nc1ncnc2sccc12 (centres unmarked) [compound 237] | > 95% |
| Cc1c(Cl)ncnc1NCCC#Cc1ccccc1C(F)(F)F [compound 364] | 60 to 80% |
| CSc1ccc(C#CCCNc2ncnc3ccccc23)cc1 [compound 117] | 60 to 80% |
| C#CCCNc1ncnc2sccc12 [compound 1, 4-(3-butynylamino)thieno[2,3-d]pyrimidine] | 80 to 95% |
| COC(=O)c1ccc(C#CCCNc2ncnc3sccc23)cc1 [compound 31] | 60 to 80% |
| CCc1ccccc1C#CCCNc1ncnc2ccccc12 [compound 103] | > 95% |
| Cc1nc(C#CCC(C)Nc2ncnc3ccccc23)cs1 (centres unmarked) [compound 292] | > 95% |
| CCOCc1ccccc1C#CCCNc1ncnc2sccc12 [compound 46] | > 95% |
| FC(F)(F)Oc1ccc(C#CCCNc2ncnc3sccc23)cc1 [compound 34] | 60 to 80% |
| OCc1ccccc1C#CCCNc1ncnc2sccc12 [compound 44] | > 95% |
| C(#CC1CCCCC1)CCNc1ncnc2ccccc12 [compound 91] | > 95% |
| COCc1ccccc1C#CCCNc1ncnc2c(C)cccc12 [compound 325] | > 95% |
| CC(CC#Cc1cc(F)ccc1C(F)(F)F)Nc1ncnc2sccc12 (centres unmarked) [compound 248] | > 95% |
| COCc1ccccc1C#CCCNc1ncnc2ccc(-c3ccccc3F)cc12 [compound 334] | 60 to 80% |
| C(#CC1=CCCCC1)CCNc1ncnc2ccccc12 [compound 94] | 60 to 80% |
| CCC(CC#Cc1ccc(F)cc1)Nc1ncnc2ccccc12 (centres unmarked) [compound 294] | > 95% |
| FC(F)(F)c1ccccc1C#CCCNc1ncnc2c(Cl)cccc12 [compound 307] | 60 to 80% |

| Structure (SMILES) | mortality at 250 ppm |
| --- | --- |
| COCc1ccccc1C#CCCNc1ncnc2cc(F)ccc12 [compound 316] | > 95% |
| N#Cc1cc(F)ccc1C#CCCNc1ncnc2ccccc12 [compound 170] | 80 to 95% |
| N#Cc1cc(C(F)(F)F)ccc1C#CCCNc1ncnc2ccccc12 [compound 187] | 60 to 80% |
| COc1cc(C#CCCNc2ncnc3ccccc23)ccn1 [compound 199] | 60 to 80% |
| COCc1cc(Cl)ccc1C#CCCNc1ncnc2ccccc12 [compound 140] | > 95% |
| CC(CC#Cc1ccccc1C(F)(F)F)Nc1ncnc2ccccc12 (centres unmarked) [compound 274] | > 95% |
| COCc1ccccc1C#CCCNc1ncnc2c(OC)cccc12 [compound 328] | > 95% |
| CC(CC#Cc1ccc(Cl)cc1CO)Nc1ncnc2sccc12 (centres unmarked) [compound 245] | > 95% |
| FC(F)c1ccccc1C#CCCNc1ncnc2ccccc12 [compound 100] | > 95% |
| CN(C)S(=O)(=O)c1ccccc1C#CCCNc1ncnc2ccccc12 [compound 161] | > 95% |
| CC(CC#Cc1ccc(C#N)cc1C(F)(F)F)Nc1ncnc2sccc12 (centres unmarked) [compound 260] | > 95% |
| Cc1ncnc(NC(C)CC#Cc2ccccc2)c1Cl (centres unmarked) [compound 389] | > 95% |
| CC(CC#Cc1ccc(F)cc1Cl)Nc1ncnc2sccc12 (centres unmarked) [compound 247] | 80 to 95% |
| CC(CC#Cc1ccccc1OC(C)C)Nc1ncnc2sccc12 (centres unmarked) [compound 242] | > 95% |
| FC(F)(F)c1ccccc1C#CCCNc1ncnc2cccc(Cl)c12 [compound 310] | 80 to 95% |
| N#Cc1cccc(C#CCCNc2ncnc3sccc23)c1 [compound 36] | 60 to 80% |
| FC(F)(F)c1ccccc1C#CCCNc1ncnc(Cl)c1Br [compound 367] | 80 to 95% |
| COCc1ccccc1C#CCCNc1ncnc2ccc(Cl)cc12 [compound 313] | > 95% |
| C/C(C#N)=C/C#CCCNc1ncnc2ccccc12 [compound 93] | 80 to 95% |
| FC(F)(F)c1ccc(C#CCCNc2ncnc3ccccc23)nc1 [compound 197] | > 95% |
| COCc1ccc(F)cc1C#CCCNc1ncnc2ccccc12 [compound 142] | > 95% |
| COCc1cc(C)ccc1C#CCCNc1ncnc2ccccc12 [compound 145] | > 95% |
| COc1ccccc1C#CCCNc1ncnc2sccc12 [compound 21] | > 95% |

| Structure (SMILES) | mortality at 250 ppm |
| --- | --- |
| C(#CC1CC1)CCNc1ncnc2ccccc12 [compound 90] | 60 to 80% |
| COCc1ccc2ccccc2c1C#CCCNc1ncnc2ccccc12 [compound 185] | 60 to 80% |
| COc1nc(C#CCCNc2ncnc3ccccc23)cs1 [compound 212] | 60 to 80% |
| COc1cccc(C#CCCNc2ncnc3sccc23)c1 [compound 22] | 80 to 95% |
| C(#Cc1cscn1)CCNc1ncnc2ccccc12 [compound 210] | 60 to 80% |
| CN(C)c1ccc(C#CCCNc2ncnc3ccccc23)cc1 [compound 159] | 60 to 80% |
| CC(CC#Cc1c(Cl)cccc1C(F)(F)F)Nc1ncnc2sccc12 (centres unmarked) [compound 252] | > 95% |
| C(#Cc1cccs1)CCNc1ncnc2ccccc12 [compound 204] | 80 to 95% |
| N#Cc1ccccc1C#CCCNc1ncnc2sccc12 [compound 35] | 60 to 80% |
| COCc1cccc(F)c1C#CCCNc1ncnc2ccccc12 [compound 141] | > 95% |
| CC(CC#Cc1c(Cl)cc(F)cc1Cl)Nc1ncnc2sccc12 (centres unmarked) [compound 261] | > 95% |
| COCc1ccccc1C#CCCNc1ncnc(Cl)c1C [compound 363] | 60 to 80% |
| C(#Cc1ccccc1)CCNc1ncnc2sccc12 [compound 10, 4-(4-Phenyl-3-butynylamino)thieno[2,3-d]pyrimidine] | > 95% |
| Fc1ccc(F)c(C#CCCNc2ncnc3ccccc23)c1 [compound 163] | 60 to 80% |
| C(#Cc1ccsc1)CCNc1ncnc2sccc12 [compound 54] | > 95% |
| Cc1nc(C#CCC(C)Nc2ncnc3sccc23)cs1 (centres unmarked) [compound 266] | > 95% |
| C(#Cc1cccs1)CCNc1ncnc2sccc12 [compound 53] | > 95% |
| CC(CC#Cc1ccc(Cl)cc1C(F)(F)F)Nc1ncnc(C(F)(F)F)c1Cl (centres unmarked) [compound 388] | > 95% |
| Cc1ccc(C#CCC(C)Nc2ncnc3sccc23)c(Cl)c1 (centres unmarked) [compound 255] | > 95% |
| C#CCCNc1ncnc2ccccc12 [compound 86] | 60 to 80% |
| CC(CC#Cc1nccs1)Nc1ncnc2sccc12 (centres unmarked) [compound 265] | > 95% |
| COCc1ccccc1C#CCCNc1ncnc2cccc(Cl)c12 [compound 314] | > 95% |
| OCC(CC#Cc1ccccc1)Nc1ncnc2ccccc12 (centres unmarked) [compound 299] | > 95% |
